This passage reports binding signal results from PMC9911399, “Two distinct binding modes provide the RNA-binding protein RbFox with extraordinary sequence specificity”.

Changes are numbered by the printed parent chain; changes in the protein carry UniProt numbers. Some of the results follow.

The labels stand for the following.
T1: RBFOX1 RRM (Homo sapiens, UniProt Q9NWB1 109-208)
T1 sequence: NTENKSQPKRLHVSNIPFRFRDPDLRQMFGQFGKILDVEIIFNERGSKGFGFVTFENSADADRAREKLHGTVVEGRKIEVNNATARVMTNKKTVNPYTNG

B1: UCGACUU (DNA:RNA)
RNA: GGGAGACCGGAAUUCAGAUUGUCCUCGACUUUUAAAUCCCGUCGUAGCCACCA
DNA 1: CAATCTGAATTCCGGTCTCCC
DNA 2: TGGTGGCTACGACGGGATT
B2: UCUCCAA (DNA:RNA)
RNA: B1 RNA with G27U, A28C, U30A, U31A
DNA 1: CAATCTGAATTCCGGTCTCCC
DNA 2: TGGTGGCTACGACGGGATT
B3: UGUCUGU (DNA:RNA)
RNA: B1 RNA with C26G, G27U, A28C, C29U, U30G
DNA 1: CAATCTGAATTCCGGTCTCCC
DNA 2: TGGTGGCTACGACGGGATT
B4: UGGGAUA (DNA:RNA)
RNA: B1 RNA with C26G, A28G, C29A, U31A
DNA 1: CAATCTGAATTCCGGTCTCCC
DNA 2: TGGTGGCTACGACGGGATT
B5: AUCAGUC (DNA:RNA)
RNA: B1 RNA with U25A, C26U, G27C, C29G, U31C
DNA 1: CAATCTGAATTCCGGTCTCCC
DNA 2: TGGTGGCTACGACGGGATT
B6: UGUCGAU (DNA:RNA)
RNA: B1 RNA with C26G, G27U, A28C, C29G, U30A
DNA 1: CAATCTGAATTCCGGTCTCCC
DNA 2: TGGTGGCTACGACGGGATT
B7: CGUUUUU (DNA:RNA)
RNA: B1 RNA with U25C, C26G, G27U, A28U, C29U
DNA 1: CAATCTGAATTCCGGTCTCCC
DNA 2: TGGTGGCTACGACGGGATT
B8: UCUUAAU (DNA:RNA)
RNA: B1 RNA with G27U, A28U, C29A, U30A
DNA 1: CAATCTGAATTCCGGTCTCCC
DNA 2: TGGTGGCTACGACGGGATT
B9: GGCGUUU (DNA:RNA)
RNA: B1 RNA with U25G, C26G, G27C, A28G, C29U
DNA 1: CAATCTGAATTCCGGTCTCCC
DNA 2: TGGTGGCTACGACGGGATT
B10: AGGGUGG (DNA:RNA)
RNA: B1 RNA with U25A, C26G, A28G, C29U, U30G, U31G
DNA 1: CAATCTGAATTCCGGTCTCCC
DNA 2: TGGTGGCTACGACGGGATT
B11: AUCAUUC (DNA:RNA)
RNA: B1 RNA with U25A, C26U, G27C, C29U, U31C
DNA 1: CAATCTGAATTCCGGTCTCCC
DNA 2: TGGTGGCTACGACGGGATT
B12: CGCAGCG (DNA:RNA)
RNA: B1 RNA with U25C, C26G, G27C, C29G, U30C, U31G
DNA 1: CAATCTGAATTCCGGTCTCCC
DNA 2: TGGTGGCTACGACGGGATT
B13: GCUAGAG (DNA:RNA)
RNA: B1 RNA with U25G, G27U, C29G, U30A, U31G
DNA 1: CAATCTGAATTCCGGTCTCCC
DNA 2: TGGTGGCTACGACGGGATT
B14: CGGCAGA (DNA:RNA)
RNA: B1 RNA with U25C, C26G, A28C, C29A, U30G, U31A
DNA 1: CAATCTGAATTCCGGTCTCCC
DNA 2: TGGTGGCTACGACGGGATT
B15: GGACUCU (DNA:RNA)
RNA: B1 RNA with U25G, C26G, G27A, A28C, C29U, U30C
DNA 1: CAATCTGAATTCCGGTCTCCC
DNA 2: TGGTGGCTACGACGGGATT
B16: CAGGUAC (DNA:RNA)
RNA: B1 RNA with U25C, C26A, A28G, C29U, U30A, U31C
DNA 1: CAATCTGAATTCCGGTCTCCC
DNA 2: TGGTGGCTACGACGGGATT
B17: AAACUCC (DNA:RNA)
RNA: GGGAGACCGGAAUUCAGAUUGUCCAAACUCCUUAAAUCCCGUCGUAGCCACCA
DNA 1: CAATCTGAATTCCGGTCTCCC
DNA 2: TGGTGGCTACGACGGGATT
B18: AAGAAUC (DNA:RNA)
RNA: B17 RNA with A27G, C28A, U29A, C30U
DNA 1: CAATCTGAATTCCGGTCTCCC
DNA 2: TGGTGGCTACGACGGGATT
B19: UCAGACG (DNA:RNA)
RNA: B17 RNA with A25U, A26C, C28G, U29A, C31G
DNA 1: CAATCTGAATTCCGGTCTCCC
DNA 2: TGGTGGCTACGACGGGATT
B20: UCGUAUC (DNA:RNA)
RNA: B1 RNA with A28U, C29A, U31C
DNA 1: CAATCTGAATTCCGGTCTCCC
DNA 2: TGGTGGCTACGACGGGATT
B21: CUCGAUU (DNA:RNA)
RNA: B1 RNA with U25C, C26U, G27C, A28G, C29A
DNA 1: CAATCTGAATTCCGGTCTCCC
DNA 2: TGGTGGCTACGACGGGATT
B22: GUAUGCG (DNA:RNA)
RNA: B17 RNA with A25G, A26U, C28U, U29G, C31G
DNA 1: CAATCTGAATTCCGGTCTCCC
DNA 2: TGGTGGCTACGACGGGATT
B23: GAACCAC (DNA:RNA)
RNA: B17 RNA with A25G, U29C, C30A
DNA 1: CAATCTGAATTCCGGTCTCCC
DNA 2: TGGTGGCTACGACGGGATT
B24: AAACCGC (DNA:RNA)
RNA: B17 RNA with U29C, C30G
DNA 1: CAATCTGAATTCCGGTCTCCC
DNA 2: TGGTGGCTACGACGGGATT
B25: CUCAAUA (DNA:RNA)
RNA: B1 RNA with U25C, C26U, G27C, C29A, U31A
DNA 1: CAATCTGAATTCCGGTCTCCC
DNA 2: TGGTGGCTACGACGGGATT
B26: GCGAGUC (DNA:RNA)
RNA: B1 RNA with U25G, C29G, U31C
DNA 1: CAATCTGAATTCCGGTCTCCC
DNA 2: TGGTGGCTACGACGGGATT
B27: CUACGUU (DNA:RNA)
RNA: B17 RNA with A25C, A26U, U29G, C30U, C31U
DNA 1: CAATCTGAATTCCGGTCTCCC
DNA 2: TGGTGGCTACGACGGGATT
B28: CGAUUGA (DNA:RNA)
RNA: B17 RNA with A25C, A26G, C28U, C30G, C31A
DNA 1: CAATCTGAATTCCGGTCTCCC
DNA 2: TGGTGGCTACGACGGGATT
B29: UACAGUG (DNA:RNA)
RNA: B1 RNA with C26A, G27C, C29G, U31G
DNA 1: CAATCTGAATTCCGGTCTCCC
DNA 2: TGGTGGCTACGACGGGATT
B30: UAGUCAC (DNA:RNA)
RNA: B1 RNA with C26A, A28U, U30A, U31C
DNA 1: CAATCTGAATTCCGGTCTCCC
DNA 2: TGGTGGCTACGACGGGATT
B31: GAUAAGC (DNA:RNA)
RNA: B17 RNA with A25G, A27U, C28A, U29A, C30G
DNA 1: CAATCTGAATTCCGGTCTCCC
DNA 2: TGGTGGCTACGACGGGATT

In the assay the target is T1, RBFOX1 RRM. Nature of the assay: EMSA; HiTS-Eq, 1 nM pool, 10 min; buffer printed only for the single-RNA assays: 10 mM Tris pH 7.5, 150 mM NaCl, 3.4 mM EDTA, 0.001% NP-40, 30 C. Particulars: tags: His6 N-terminal (pET28a); label: 5' 32P. In a few lines: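 These values rest on relative association constants, computed from read-count changes of each RNA species versus the control reaction and normalised to the cognate motif. Reads came from free RNA recovered by 8% native PAGE after purified RbFox RRM (wild type or mutant) at increasing concentrations was equilibrated for 10 min in 50 µL with 1 nM of a 5′-radiolabelled pool with 7 randomized nucleotides and DNA-annealed flanks.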
For orientation: Mobility shift assays separate free from complexed probe on a gel.
Consider B1, for which the binding signal was 0.0106 KA relative to UGCAUGU.

For B2, the binding signal is 0.00225 KA relative to UGCAUGU. The same measure for B3: 0.0276 KA relative to UGCAUGU; for B4: 0.0263 KA relative to UGCAUGU; for B5: 0.00492 KA relative to UGCAUGU. On to B6, for which the binding signal was 0.0236 KA relative to UGCAUGU. The same measure for B7: 0.0111 KA relative to UGCAUGU. To B8 belongs 0.00441 KA relative to UGCAUGU. The same measure for B9: 0.0145 KA relative to UGCAUGU; for B10: 0.0193 KA relative to UGCAUGU. As for B11, the binding signal is 0.00342 KA relative to UGCAUGU.

In the case of B12, the binding signal was 0.0102 KA relative to UGCAUGU.

As to B13, the binding signal is 0.0161 KA relative to UGCAUGU. B14: the binding signal was 0.0139 KA relative to UGCAUGU. To B15 belongs 0.0119 KA relative to UGCAUGU; to B16, 0.0123 KA relative to UGCAUGU; to B17, 0.000391 KA relative to UGCAUGU. To B18 belongs 0.00582 KA relative to UGCAUGU; to B19, 0.00574 KA relative to UGCAUGU; to B20, 0.0121 KA relative to UGCAUGU. The same measure for B21: 0.0084 KA relative to UGCAUGU. As to B22, the binding signal was 0.0216 KA relative to UGCAUGU. With B23, the binding signal is 0.00199 KA relative to UGCAUGU. The same measure for B24: 0.00274 KA relative to UGCAUGU.

As for B25, the binding signal is 0.00128 KA relative to UGCAUGU. To B26 belongs 0.0185 KA relative to UGCAUGU; to B27, 0.00949 KA relative to UGCAUGU; to B28, 0.0198 KA relative to UGCAUGU.

As to B29, the binding signal was 0.0137 KA relative to UGCAUGU. The same measure for B30: 0.00687 KA relative to UGCAUGU. To B31 belongs 0.00832 KA relative to UGCAUGU.
